# Laboratory results reported in the supplement of paper PMC11060735.
# “And” between values parts separate entries of the source, which are not always exact repeats. Equal values may be shown once. Where a name gives a salt, the structure may show the parent alone. Screen size: about 1,800 compounds; about 50 (3%) showed activity. The list shows a part of the results.
# Test system: mouse p16Ink4a+/- lung fibroblasts (INKBRITE, bleomycin-injured)
# Experiment: percentage of GFP+ (p16Ink4a+) fibroblasts among all cells in well; higher = less depletion of p16Ink4a+ cells, active = 20 or less
# Conditions: 1 µM; 3 days
# 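Further: fibroblasts sorted 14 days after bleomycin, GFP+ and GFP− mixed 1:1 in 384-well plates (GFP− as in-well control), imaged after Hoechst and NucView530 staining, reference wells lacked compound.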
row,Structure (SMILES),percentage of GFP+
1,CC1(C)S[C@@H]2[C@H](NC(=O)[C@H](N)c3ccccc3)C(=O)N2[C@H]1C(=O)O [Ampicillin],inactive: 49.5% and inactive: 41.4%
2,CC(C)NCC(O)c1ccc(NS(C)(=O)=O)cc1 (stereo not drawn) [Sotalol],inactive: 39.9%
3,CC(CNC(=O)c1cccnc1)NC(=O)c1cccnc1 (stereo not drawn) [Nicaraven],inactive: 41.5%
4,CCN(CC)CC(=O)Nc1c(C)cccc1C [Lidocaine],inactive: 45.2%
5,CC1=C(C(=O)OC2CCCCC2)C(c2ccc([N+](=O)[O-])cc2)C2=C(O)CC(C)(C)CC2=N1 (stereo not drawn),inactive: 44.8%
6,CC1CC(OC(=O)C(O)c2ccccc2)CC(C)(C)C1 (stereo not drawn) [Cyclandelate],inactive: 42.7%
7,CC(=O)NS(=O)(=O)c1ccc(N)cc1 [Sulfacetamide],inactive: 50.8%
8,CC[C@H]1OC(=O)C[C@@H](O)[C@H](C)[C@@H](O[C@@H]2O[C@H](C)[C@@H](O)[C@H](N(C)C)[C@H]2O)[C@@H](CCN2C[C@H](C)C[C@H](C)C2)C[C@@H](C)C(=O)/C=C/C(C)=C/[C@@H]1CO[C@@H]1O[C@H](C)[C@@H](O)[C@@H](OC)[C@H]1OC [Tilmicosin],inactive: 50.6%
9,COC(=O)Nc1nc2cc(C(=O)c3cccs3)ccc2[nH]1 [Nocodazole],inactive: 23.5%
10,CN(C)CCC(c1ccc(Cl)cc1)c1ccccn1 (stereo not drawn) [Chlorphenamine],inactive: 37.1%
11,OCc1c[nH]c2ccccc12 [Indole-3-carbinol],inactive: 47%
12,Cc1ccc(F)c(NC(=O)Nc2ccc(-c3cccc4[nH]nc(N)c34)cc2)c1 [Linifanib],inactive: 24%
13,Cc1nc(O)c2cc(CN(C)c3ccc(C(=O)N[C@@H](CCC(=O)O)C(=O)O)s3)ccc2n1 [Raltitrexed],inactive: 40.7%
14,O=C(O)c1cccnc1 [Niacin],inactive: 40.2%
15,CCC(C)(C)C(=O)O[C@H]1C[C@@H](C)C=C2C=C[C@H](C)[C@H](CC[C@@H]3C[C@@H](O)CC(=O)O3)[C@H]21 [Simvastatin],inactive: 20.1%
16,CN1CCOC(c2ccccc2)c2ccccc2C1 (stereo not drawn) [Nefopam],inactive: 42.1%
17,COC(=O)Nc1nc2cc(S(=O)c3ccccc3)ccc2[nH]1 (stereo not drawn) [Oxfendazole],inactive: 36.2%
18,CS(=O)(=O)c1ccc([C@@H](O)[C@@H](CF)NC(=O)C(Cl)Cl)cc1 [Florfenicol],inactive: 50.4%
19,CN[C@@H]1[C@H](O)[C@H](NC)[C@H]2O[C@@]3(O)C(=O)C[C@@H](C)O[C@H]3O[C@@H]2[C@H]1O [Spectinomycin],inactive: 41.2%
20,c1ccc2c(CC3=NCCN3)cccc2c1 [Naphazoline],inactive: 38.4%
21,CC#CCn1c(N2CCC[C@@H](N)C2)nc2c1c(=O)n(Cc1nc(C)c3ccccc3n1)c(=O)n2C [Linagliptin],inactive: 43.6%
22,N[C@H]1C[C@@H]1c1ccc(-c2cccc(O)c2)cc1,inactive: 44.5%
23,Nc1ncnc2c1ncn2[C@@H]1O[C@H](CO)[C@@H](O)[C@H]1O [Adenosine],inactive: 39.5%

row,Structure (SMILES),percentage of GFP+
1,O=[N+]([O-])c1ccc2c(c1)S(=O)(=O)C=C2 [Stattic],inactive: 21.8%
2,N=C(N)/N=C(\N)NCCc1ccccc1 [Phenformin],inactive: 37.3%
3,O=C(O)c1ccc(N2C(=O)/C(=C/c3ccc(-c4ccc([N+](=O)[O-])cc4)o3)C=C2c2ccccc2)cc1,inactive: 49.2%
4,COC(=O)/C=C/C(=O)OC [Dimethyl Fumarate],inactive: 41%
5,COC(=O)N[C@@H](C)CNc1nccc(-c2cn(C(C)C)nc2-c2cc(Cl)cc(NS(C)(=O)=O)c2F)n1,inactive: 49.8%
6,CN(C)CC/C=C1/c2ccccc2COc2ccc(CC(=O)O)cc21 [Olopatadine],inactive: 41.7%
7,CN(C)c1ccc(C(=O)NCCCCCCC(=O)NO)cc1,inactive: 30.4%
8,CO[C@H]1C[C@@H]2CC[C@@H](C)[C@@](O)(O2)C(=O)C(=O)N2CCCC[C@H]2C(=O)O[C@H]([C@H](C)C[C@@H]2CC[C@@H](OC(=O)C(C)(CO)CO)[C@H](OC)C2)CC(=O)[C@H](C)/C=C(\C)[C@@H](O)[C@@H](OC)C(=O)[C@H](C)C[C@H](C)/C=C/C=C/C=C/1C [Temsirolimus],inactive: 38.5%
9,C[C@H](CCC(=O)O)[C@H]1CC[C@H]2[C@@H]3[C@@H](O)C[C@@H]4C[C@H](O)CC[C@]4(C)[C@H]3CC[C@]12C [Ursodeoxycholic Acid],inactive: 47%
10,CCOc1ccccc1N=Nc1c(C)nn(-c2nc(-c3ccccc3)cs2)c1O,inactive: 48.7%
11,CC(=O)Oc1ccc(C(c2ccc(OC(C)=O)cc2)c2ccccn2)cc1 [Bisacodyl],inactive: 42.6%
12,N[C@@H](Cc1cc(I)c(Oc2ccc(O)c(I)c2)c(I)c1)C(=O)O [Liothyronine],inactive: 49%
13,Cc1ccc(-n2sc(=O)n(Cc3ccc(F)cc3)c2=O)cc1,inactive: 46.8%
14,O=c1cc(N2CCOCC2)oc2c1ccc1ccccc12,inactive: 41.8%
15,O=C(/C=C/C=C/c1ccc2c(c1)OCO2)N1CCCCC1 [Piperine],inactive: 36.6%
16,Cc1ccc(NC(=O)c2cccc(C(C)(C)C#N)c2)cc1Nc1ccc2ncn(C)c(=O)c2c1,inactive: 30.9%
17,COc1ccc(CCN(C)CCCC(C#N)(c2ccc(OC)c(OC)c2)C(C)C)cc1OC (stereo not drawn) [Verapamil],inactive: 52.9%
18,C=C1C(=O)[C@@]23C(CC[C@@H]1[C@H]2O)[C@@]12CO[C@]3(O)[C@@H](O)[C@@H]1C(C)(C)CC[C@@H]2O (stereo partly drawn) [Oridonin],inactive: 29.7%
19,CC(C)(C)c1ccc(C(=O)CCCN2CCC(OC(c3ccccc3)c3ccccc3)CC2)cc1 [Ebastine],inactive: 56.5%
20,Cc1cc(-c2ncc(CC(=O)Nc3ccc(-c4cnccn4)cn3)cc2C)ccn1,inactive: 40%
21,CC1(C)SC2C(NC(=O)[C@H](C(=O)O)c3ccsc3)C(=O)N2C1C(=O)O (stereo partly drawn) [Ticarcillin sodium],inactive: 38.1%
22,Cc1ccc(O)c([C@H](CCN(C(C)C)C(C)C)c2ccccc2)c1 [Tolterodine],inactive: 40.7%
23,C=CCc1ccc(O)c(-c2ccc(O)c(CC=C)c2)c1 [Honokiol],inactive: 47.7%

row,Structure (SMILES),percentage of GFP+
1,C[C@]1(c2nc3c(C(N)=O)cccc3[nH]2)CCCN1 [Veliparib],inactive: 40.6%
2,CC1(C)CC(=O)c2c(C(F)(F)F)nn(-c3ccc(C(N)=O)c(N[C@H]4CC[C@H](OC(=O)CN)CC4)c3)c2C1,active: 6.23%
3,Fc1ccc(C(c2ccc(F)cc2)N2CCN(C/C=C/c3ccccc3)CC2)cc1 [Flunarizine],inactive: 44.8%
4,COc1ccc([C@@H]2CC(=O)c3c(O)cc(O[C@@H]4O[C@H](CO[C@@H]5O[C@@H](C)[C@H](O)[C@@H](O)[C@H]5O)[C@@H](O)[C@H](O)[C@H]4O)cc3O2)cc1O [Hesperidin],inactive: 43.1% and inactive: 45%
5,CCN1/C(=C/C(C)=O)Sc2ccc(OC)cc21,inactive: 50.3%
6,COc1cc(OC)c2c(O)nc(-c3cc(C)c(OCCO)c(C)c3)nc2c1,inactive: 46.3%
7,CS(=O)(=O)c1ccc(C2=C(c3ccccc3)C(=O)OC2)cc1 [Rofecoxib],inactive: 40.2%
8,O=C(/C=C\n1cnc(-c2cc(C(F)(F)F)cc(C(F)(F)F)c2)n1)N1CC(F)(F)C1,inactive: 24.1%
9,CCCCNc1ncc(-c2ccc(CN3CCOCC3)cn2)c(N[C@H]2CC[C@H](O)CC2)n1,inactive: 48.8%
10,CNC[C@H](O)c1ccc(O)c(O)c1 [Epinephrine],inactive: 43.2% and inactive: 43.6% and inactive: 39%
11,C=C(C)[C@@H]1CC[C@]2(C(=O)O)CC[C@]3(C)[C@H](CC[C@@H]4[C@@]5(C)CC[C@H](O)C(C)(C)[C@@H]5CC[C@]43C)[C@@H]12 [Betulinic acid],inactive: 49.8%
12,CN1[C@@H]2CC[C@H]1C[C@@H](OC(c1ccccc1)c1ccccc1)C2 [Benzatropine],inactive: 51.1%
13,CC(S)C(=O)NCC(=O)O (stereo not drawn) [Tiopronin],inactive: 42.1%
14,CCc1c(Cl)c(O)c(Cl)c(O)c1C(=O)O[C@H]1[C@H](O)[C@H](OC)[C@H](OC/C2=C\C=C\C[C@H](O)/C(C)=C\[C@H](CC)[C@@H](O[C@@H]3OC(C)(C)[C@@H](OC(=O)C(C)C)[C@H](O)[C@@H]3O)/C(C)=C\C(C)=C/C[C@@H]([C@@H](C)O)OC2=O)O[C@@H]1C [Fidaxomicin],inactive: 50.9%
15,Cc1ccc(Sc2ccccc2N2CCNCC2)c(C)c1 [Vortioxetine HBr],inactive: 48.5%
16,COc1cc2nccc(Oc3ccc(NC(=O)Nc4cc(C)on4)c(Cl)c3)c2cc1OC [Tivozanib],inactive: 28.8%
17,C[N+](C)(C)CCO [Choline],inactive: 39.1%
18,Cc1cc(N2CCOCC2)ccc1Nc1nc(NC2CCCCC2)c2[nH]cnc2n1,inactive: 33.6%
19,C=CCn1c(=O)c2cnc(Nc3ccc(N4CCN(C)CC4)cc3)nc2n1-c1cccc(C(C)(C)O)n1,inactive: 41.6%
20,CCCNS(=O)(=O)Nc1ncnc(OCCOc2ncc(Br)cn2)c1-c1ccc(Br)cc1 [Macitentan],inactive: 46.3%
21,Cc1ccc(-c2cc(C(F)(F)F)nn2-c2ccc(S(N)(=O)=O)cc2)cc1 [Celecoxib],inactive: 38.4%
22,Clc1ccc(CCC(Cn2ccnc2)Sc2c(Cl)cccc2Cl)cc1 (stereo not drawn) [Butoconazole],inactive: 39.6%
